# ± gives the standard deviation of the averaged measurements. Some of the results follow.
# Test system: PfAP2-I AP2 domain 3 (GST-tagged)
# Assay: gcPBM binding intensity (ln(normalized median fluorescence intensity)); higher = stronger DNA binding
# Outline: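 The highest Masliner-normalised natural-log median intensity across replicate spots of either probe orientation is reported as binding intensity. GST-tagged P. falciparum DNA-binding domains expressed in E. coli were applied for 1 h to an Agilent 4 × 180k array of primer-extended double-stranded 36-bp intergenic genomic probes plus negative controls, and bound protein was detected with Alexa488 anti-GST antibody and scanned at 488 nm.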
row,Sequence,gcPBM binding intensity (ln)
1,AGGAAAATACCTTAATGTACATAGAAAAGTAACATT [XGTACX_site8011],7.78 ± 0.52
2,CACTTAACACAAGAGTGTACACATATATATATATAT [XGTACX_site686],9.61 ± 0.52
3,GACATTGATACCAGTAGTACCTATAGATGTTTGTTT [XGTACX_site5736],7.84 ± 0.49
4,TTATGGAATAATCACGTACACACAAGAAAAAAAAAA [CACACA_site526],8.1 ± 0.57
5,ATTATATATAAGAAGAGTACTGAATATGTGCAATAT [XGTACX_site4471],10.3 ± 0.4
6,TTATAGAAAATGGAATAGAATGGAATGGAAGAAATA [CACACA_negctrl_site1086],7.92 ± 0.73
7,TATATACACCCACATACACACAAATAAAAAAACACC [CACACA_site3414],9.13 ± 0.092
8,ATGTTGCACAGTGGAAGAATTAAAAATAAATAAATA [XGTACX_negctrl_site581],9.95 ± 0.32
9,GTGGAACGTATATTTTCACACACTCTCAAAAGTACA [CACACA_site8722],7.72 ± 0.57
10,AAATAATGTTTGAATTGTACACATATTTGTGTTTCT [XGTACX_site4603],7.66 ± 0.47
11,ATGAACATATCAATTCTCAAAATAGGATGAGAGCAT [CACACA_negctrl_site230],7.63 ± 0.61
12,AATATTATAAATGTCACACATATATTCAAATATATA [CACACA_site4736],7.61 ± 0.38
13,AATTTTTGTATTTTTAGTACTTAATTTCAAAATAAC [XGTACX_site4234],7.7 ± 0.52
14,GTGGAACATATGAACTCACACACATTTTCACTTAAA [CACACA_site3683],7.8 ± 0.57
15,ATATAAGGATTAATATGTACATATATATATATATTT [XGTACX_site1390],7.83 ± 0.45
16,TTTGTATATTATTTTAGTACATAACATTGAAGATAT [XGTACX_site6680],7.83 ± 0.24
17,TATTTTGAAACTAAAAGACATAGAGAAAACAAAAAA [CACACA_negctrl_site1306],8 ± 0.79
18,TTTATTGACAATTTATGTACATATAATTGAAAAATA [XGTACX_site6634],7.82 ± 0.21
19,GAATGGACGTTAGGGGGTACGTATAAAATTTATCAA [XGTACX_site683],8.87 ± 0.24
20,TTTGTGATATTATATTGTACCCTATATTTATTATAA [XGTACX_site4240],7.9 ± 0.47
21,ATTTGTTACGGACATGCATGCGAATCAGGGTATATA [TGCATGCA_site154],8.1 ± 0.76
22,TATAAAAAAAAAAAATATATATATATATAAATATAA [TGCATGCA_negctrl_site367],7.28 ± 0.37
23,TAAGAAAAAAAAAAAAAAAAAAAAAAAAAAAAAAAA [CACACA_negctrl_site760],8.33 ± 1.1

row,Sequence,gcPBM binding intensity (ln)
1,TAAAAATATTTTCATTGTACATATATATAAATATAT [XGTACX_site1123],7.59 ± 0.3
2,TCACCTATTTTTAACTGTACTGAAATGATATATATA [XGTACX_site1366],8.03 ± 0.47
3,TAATGAAATTGTAGTAGTACCTTCTTATAAATAAAA [XGTACX_site6747],7.55 ± 0.4
4,TTGAGGAAATAACAGTGTACAAACAAATTATTACCA [XGTACX_site7082],7.83 ± 0.49
5,TACATATATATATATATATATATATATATCATTATG [XGTACX_negctrl_site293],8.5 ± 0.44
6,GTTCAATTTTTAGGAAGTACAAAAAAAAAAAAGAAA [XGTACX_site7286],8.12 ± 0.028
7,ATGGTACATACATACACACACACAAAAAAAAAAAAA [CACACA_site1578],8.12 ± 0.52
8,TATATTTGTATTGTTTGTACTTATATGAATTTATAT [XGTACX_site4228],7.6 ± 0.42
9,TATATTAGTGTTGACACACACAAAAAAAAAAAAAAA [CACACA_site1396],8.03 ± 0.61
10,CAAACCTATATACAAACATGCAATCCACATATTGGT [TGCATGCA_site756],7.62 ± 0.61
11,TTTTCCATAAGAATTACACACAGAAAGGATAAGTAT [CACACA_site105],8.04 ± 0.73
12,CTTATATTAATTATTACACACATATTTATAAATGCA [CACACA_site6501],8.07 ± 0.47
13,TATTACATACAATATTGTACATATCATATTTTGAAT [XGTACX_site2191],7.8 ± 0.52
14,ACGGAAAAAGAAAAGGTGCATATGGACACAATATAT,10.85 ± 0.099
15,ATAGAAATATTATATTGTACGAACAGTTATTAACAA [XGTACX_site2137],7.83 ± 0.42
16,ATTATTTGTTTAAATTCACACACGTATATATATTTA [CACACA_site3050],7.9 ± 0.55
17,ACATGTAAATGGAAAAGTACTAATAACTTGTATTGG [XGTACX_site5181],7.75 ± 0.43
18,ATATATAAATATATTACACACTTTTTCTTTTTTTTT [CACACA_site7332],7.59 ± 0.71
19,TTATTTTAATATAAAATACACACTACTATTATAAAT [CACACA_site1470],7.74 ± 0.49
20,TAATTATTAAAACATTGTACATTATTATAAACAATT [XGTACX_site4489],7.55 ± 0.4
21,TATATATATATTATCACACACTCACGTTTGACAAAA [CACACA_site689],9.04 ± 0.23
22,TTATTTATTTATTCATGTACGTGTATTTTTTAAAAA [XGTACX_site7915],8.15 ± 0.53
23,TAATAAATACAAAAATGTACACACATATATATATTT [XGTACX_site7430],7.67 ± 0.39

row,Sequence,gcPBM binding intensity (ln)
1,AGTGTCATATTAACACGTACATAATTATTGTAGAGA [XGTACX_site568],8.11 ± 0.44
2,ATTGGGTACAAATACACACACATATATATATTAAGA [CACACA_site5330],8.05 ± 0.33
3,AAAGAAAAATTAACATGTACAAAAATTACTTGTTCA [XGTACX_site6725],7.25 ± 0.53
4,GTATATAAATATATATATATATATATATCTATATTT [CACACA_negctrl_site871],7.82 ± 0.23
5,GTATTTTTACAAATTTGTACATATATATGAATATAC [XGTACX_site6717],8.21 ± 0.38
6,TCTGAAACAAGAAAAAGTACACAAATTACAAAACTA [XGTACX_site7641],8.045 ± 0.007
7,AAAAAAAATTCACACTGTACAAAAGCATAAATAAAC [XGTACX_site5408],8.21 ± 0.65
8,ATATTTACCTTTGTATGTACATATATAAAATATATC [XGTACX_site6367],8.16 ± 0.67
9,TTTTGTAAAAAGAAAAATTAGAATATATCGTATATA [XGTACX_negctrl_site617],7.19 ± 0.45
10,TATATAATAAAAAAAAGTACTTGGACAATATTATTT [XGTACX_site2802],7.88 ± 0.51
11,TTAATTTACATGAACTGTACATAACATTTTTTTAAA [XGTACX_site4672],7.58 ± 0.53
12,ATCAAAATATTTATATGTACATATTAAAAATATAGA [XGTACX_site725],7.63 ± 0.31
13,ATCAACATCTAACATTGTACATGTGATGTGTAAAAG [XGTACX_site547],7.71 ± 0.52
14,ATATTTGCCCAAGATAGTACATATATATATATATAT [XGTACX_site7756],9.485 ± 0.049
15,AAATAGCCAAAAATCATGCACACCTAAAAAAAAAAA [CACACA_site2572],8.74 ± 0.35
16,TATATATATATATATTGTACATATATTATTATATAT [XGTACX_site7447],9.25 ± 0.23
17,ATATTGGAGCACAACACACACAAGTATATATATGGA [CACACA_site1546],8.39 ± 0.29
18,CATACATACAAACACACACACACACCGATATATATA [CACACA_site8952],8.22 ± 0.76
19,CACATACAGACATACACACACATATATATTAATATA [CACACA_site546],8.11 ± 0.33
20,AATTCTCTTAATAAATAAACACAAATAAATAATAAA [GTGCAC_negctrl_site499],7.63 ± 0.45
21,TTAACATATTTGTTAGTGCATTTTGATATTACACAT [GTGCAC_site9978],9.71 ± 0.13
22,AAAAAAATTAAATGTACACACACCTTAAACAATGTC [CACACA_site1855],7.81 ± 0.35
23,ATAAATAAATAAATAAATAAATAAATAAATATATAT [CACACA_negctrl_site1728],7.6 ± 0.45

row,Sequence,gcPBM binding intensity (ln)
1,ATTTATTTTATATGTTGTACAAACATTTTAAAACAT [XGTACX_site6919],7.79 ± 0.38
2,TCTTTTTCTTGACGAGTGCAAAAATTGTGTTTGAAA,9.95 ± 0.33
3,CTAATATCTGTATGCACACACAATAAATACATATTT [CACACA_site5797],8.96 ± 0.028
4,TTTTTTTAAAGAATTATCATAAAATGATTGCATCAT [XGTACX_negctrl_site141],7.39 ± 0.46
5,AATGCCTTGTTGAGGTGTACTGAATGTTATTTTAAT [XGTACX_site3255],7.75 ± 0.52
6,AAGGAAATATAATATACACACATAAGTGTACTTATA [CACACA_site4030],7.8 ± 0.092
7,TAATAAAGTGAATAATGTACATTTTATTTATTATAT [XGTACX_site6614],7.68 ± 0.41
8,ATTATATATCCCTATTCACACATGTATTATATAAAT [CACACA_site5486],8.29 ± 0.54
9,GAAAAATTAAAAATAACACACACATATATATATTTA [CACACA_site8896],7.56 ± 0.4
10,TCAGTAATACTTGAATGTACTTATATTGTTTGTTTG [XGTACX_site6449],7.5 ± 0.47
11,CCTATATTAAAACAAGCACACAATCGCATAATATCC [CACACA_site9052],7.85 ± 0.79
12,ATATTTTATTTATATACACACACATATATATATTAT [CACACA_site8177],8.06 ± 0.63
13,TTCTTTATATACAAACCAAAATATTATGTATAATAA [CACACA_negctrl_site15],7.62 ± 0.33
14,CTTTATATAAAATAAAGTACATAAATTATGATATAT [XGTACX_site3699],7.78 ± 0.42
15,TAATTTTTTTTTATGATACACACTTGGATAATTAAA [CACACA_site562],7.8 ± 0.11
16,TTATTATATATTTTATTTATTAATAGTATATATTAT [TGCATGCA_negctrl_site155],7.22 ± 0.46
17,ATACATATAATATATGCATGTACCAATCAAATATAT [TGCATGCA_site192],7.75 ± 0.5
18,TTATTCTAGTAGTGTGTGCGCATGGACAATGCAATA,8.66 ± 0.27
19,TATATATCGTTATATACACACATGTATATAAAAAAT [CACACA_site7501],7.8 ± 0.51
20,AAGAAAAAATAAAGCACACAAATATTTTAAAAACAC [CACACA_site3325],9.67 ± 0.18
